According to the supplement of paper PMC11417369:
This is one part of the list.

tested on: PfHDP1 homeodomain (GST-tagged); assay: gcPBM binding intensity (ln(normalized median fluorescence intensity)); higher = stronger DNA binding
Method in brief: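 GST-tagged P. falciparum DNA-binding domains produced in E. coli were incubated for 1 h on an Agilent 4 × 180k array of primer-extended double-stranded 36-bp intergenic genomic probes with negative controls. Binding intensity is the highest Masliner-normalised natural-log median intensity across replicate spots of either probe orientation, with bound protein detected by Alexa488 anti-GST antibody at 488 nm.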

Row | Sequence | gcPBM binding intensity (ln)
1 | AAAGCTTACATATACACACATACATAAATTCATAAA [CACACA_site2469] | 6.66
2 | ATACTAAAGAAACACACACACATATATATATAGAAT [CACACA_site100] | 7.03
3 | TTTACACCCTAAAAATGTACAAGAAAGATTATATTA [XGTACX_site1102] | 6.26
4 | ACATATATATAAAGGTGTACACATATATATATATAT [XGTACX_site4779] | 9.37
5 | TTTGTCATTTTATTATGTACTCAGCATATAGGGGGG [XGTACX_site505] | 8.48
6 | GATTTTTAAAATATCACACATAAAAAAAAAAAAAAA [CACACA_site5516] | 6.47
7 | AAAAAAATTCTGACTTGTACATATAAAATTTACAAA [XGTACX_site4408] | 5.9
8 | TAATTTAATAATTAGACACACATGTGGAAAATAAAA [CACACA_site5401] | 7.1
9 | ATATATTTCCTGAGGAGTACTATGAAAGACAAAAAA [XGTACX_site5628] | 6.77
10 | ATAATTTTGATTATCACACATATATATATATATATG [CACACA_site5882] | 6.96
11 | ATTTATTACAAATGAATGCACTATATCTTAATTTTG | 7.82
12 | TAAGAAAAAAGTAAATGTACAGAGAAAATTATCTAT [XGTACX_site7374] | 6.36
13 | ATTTATTTTTTTATCACACATTTGTGAAATGTGCAT [CACACA_site5869] | 6.83
14 | GTAAAAAGATAATGAAGTACATTTTTTCATTTTTAT [XGTACX_site5579] | 5.97
15 | AAAAAAAAAAAACACACACACACACCCATATACATA [CACACA_site2664] | 6.75
16 | ATATATTCAATTCATACACACACAATTTAAGAATGA [CACACA_site9289] | 6.64
17 | CATATCCTTACGAACTGTACAATATTAAGAATAAAA [XGTACX_site1651] | 6.33
18 | ATATTAAGGTTTATATTTTAACTTATTATTTTATTC [CACACA_negctrl_site795] | 6.12
19 | ACATATTTATATATGTGTACATAAATATTCTTTTAA [XGTACX_site8238] | 6.37
20 | ATAAAAAAATCAGACACACACACGTAAACCCATACA [CACACA_site2773] | 6.85
21 | GTTACTGCATACATAACACACATATTCAAAACCCAT [CACACA_site5856] | 6.89
22 | TTTTCCTTTACATAATGTACACAAAAAAAAAAAAAA [XGTACX_site716] | 6.38
23 | TCTTTTTTTTGAATTTGTACATAAGACAATAAAAAA [XGTACX_site4682] | 6.2

Row | Sequence | gcPBM binding intensity (ln)
24 | CATCATAGAGTGGAGTGTACAAATATGTCAACATAT [XGTACX_site2264] | 6.93
25 | AATACAGACAGACACACACACAAAATAAAATACAAA [CACACA_site245] | 6.88
26 | CTAGACTTTATTAATTGTACATATGTGTATTTTATA [XGTACX_site480] | 6.71
27 | TAGAAGCATTGACACACACACATACATACACATACA [CACACA_site6802] | 7.02
28 | TATATATATATATAATGTACATAATAATAATACATC [XGTACX_site5587] | 9.02
29 | GTCTATAACTATTGCGCACACTTTAAAAAAAAAGAA [CACACA_site1003] | 8.53
30 | AAAGAAAAAAAAATTACACACATATATTATATATAT [CACACA_site3211] | 7.12
31 | TTTTCTTCATAAATGCTGCACTGGTTTAAGCATGAT | 6.7
32 | AAATAGAAGAAATATGCACACATACATTGAAATGTT [CACACA_site7996] | 8.79
33 | TTTATTAATAAACACACACACACACCCAAAATAAAA [CACACA_site7966] | 7.17
34 | CCTTAATATTTTTGAAGTACATATTTATTTTACAAG [XGTACX_site3049] | 6.18
35 | ATTTATATCTCCATATGTTCAAAACTTTCACAAATA [TGCATGCA_negctrl_site108] | 6.48
36 | AAAATAAGTAATTACTAATATATAAATTAATAATTA [CACACA_negctrl_site1602] | 5.84
37 | AATATAAATTAATTTACACACTAAAAAATATATATA [CACACA_site3778] | 6.59
38 | AATTGAAAAATATATAAGAAGAAATATATATATGTT [GTGCAC_negctrl_site97] | 6.57
39 | GTTTTTAGTATTTTTTGTACTTAATACATAGCCTTA [XGTACX_site7318] | 6.22
40 | AACACGCGCGGACACACACACACACCCACATATATA [CACACA_site5252] | 6.97
41 | TTAATATGAAATAAATGTACATAATACATAATAAAA [XGTACX_site6194] | 6.44
42 | ATTATGTATACATAAACACACATATTTATAAAAAAA [CACACA_site6261] | 6.67
43 | ATATATTTATATATATGTACATATTATGTTAAGAAA [XGTACX_site1111] | 6.77
44 | TTTATGCATAGAGAAACATGCAAGAAAGATGCAAAA [TGCATGCA_site726] | 6.79
45 | TTCCTTATTATTATTTTACACACGTCCTAATAAGAG [CACACA_site8364] | 7.2
46 | GCTTGTACATTTTTAAAAAATGACTTCGAAAGGAAT [CACACA_negctrl_site453] | 7.01

Row | Sequence | gcPBM binding intensity (ln)
47 | TTTTAATTAGCTAGACGTACAATAATATACAAATAT [XGTACX_site6068] | 6.38
48 | CATATGTAGGGAACAATATAATATGCTTTGAATATG [GTGCAC_negctrl_site524] | 6.75
49 | ATTTTTTTAAGATAAGAAAAATAAAGTGTGGATATT [XGTACX_negctrl_site476] | 6.54
50 | TATGTATTCATATGTTGTACATTATATATAATAAGT [XGTACX_site6589] | 6.85
51 | AAATCAGAACCTATTTGTACATATACAAAAATGATT [XGTACX_site2421] | 6.16
52 | CAAACCCACGGACACACACACACAAAAATGATTAAA [CACACA_site5365] | 6.34
53 | GGATACGCTTTTGTACCACTCCCCCTTTTGGGAATA [CACACA_negctrl_site1363] | 6.4
54 | TTTATTTATTTATGTGGTACTTCAAAAATATATACT [XGTACX_site355] | 6.54
55 | ATCATATAAACATATTGTACTTAAATACATAATATT [XGTACX_site3800] | 6.44
56 | AACTCTTAGAATGACGGTACAGTATAATAGGTGAAC [XGTACX_site7163] | 6.51
57 | ATATAATGAATTATTAGAAAATAAAATGAATAAAGT [CACACA_negctrl_site690] | 6.86
58 | ATATATATATATAGTGCACACTTAAGAATATAAAGA [CACACA_site4771] | 10.3
59 | AACTATTACTTTCTTTCACACATTTTTTTTTTTTTT [CACACA_site5355] | 6.66
60 | TGTTATATAATTTAGCGTACAGGTTATAGGACGGAT [XGTACX_site8823] | 6.99
61 | CAAAAGAATATATGTAGTACATGTTGTAGATAATAT [XGTACX_site1044] | 7.03
62 | CGCGAAGTAGCATTCACACACAGCAAAATATAAATA [CACACA_site7608] | 6.43
63 | GCACAACATATATTATCACACACATATATATATATA [CACACA_site8619] | 9.14
64 | TATAATGAACATATGTGTACATATATTTTTTAAATT [XGTACX_site8736] | 6.29
65 | ACCATATAAATAAACACACACACACCGATATATATA [CACACA_site5310] | 7.05
66 | AAAAAACAAAAAAAAAAAAAAATAATACAATATAAT [CACACA_negctrl_site1630] | 6.13
67 | AAATTGGGTACAAATACACACACATATATATATTAA [CACACA_site8745] | 6.62
68 | TTTATACAATAAAATGCATGCAAGTATCTATTTTAT [TGCATGCA_site210] | 6.43
69 | TCAGATATATAGAATACACACATGGATATAAGAAAT [CACACA_site7831] | 6.8

Row | Sequence | gcPBM binding intensity (ln)
70 | ATATTTTGTAACTATACACACATATATATATTATAA [CACACA_site3062] | 6.76
71 | TTTTTGTAATATTATGATGTCATATATATATATATA [XGTACX_negctrl_site618] | 9.19
72 | TATCACTATAGACAAGCATGCATATGTACTAATATC [TGCATGCA_site1020] | 6.54
73 | ATATTATAAAATAAAAGTACACAATTATATATATAT [XGTACX_site8812] | 8.61
74 | AATAAAATGGAATACGGTACACATAATCCTAAAATG [XGTACX_site926] | 6.4
75 | TATTTTTAAAATTAAATGAATAAATAAATAAATATA [XGTACX_negctrl_site553] | 5.98
76 | AAATTCACAATGTTTGGTACACATAAAAAAAAAAGA [XGTACX_site7109] | 6.58
77 | AACATACGACAATACGCACACATATCTGTACATATT [CACACA_site5115] | 7.45
78 | AAAAATTTTTTTTTTTTTTTAAATAATAAAAATGAA [CACACA_negctrl_site1435] | 5.94
79 | TATTATTATTTTATGGTGCAAAAAAAAAAAAAAAAA | 9.91
80 | TAACATAAATTTAGGAGTACACTTTTTATACATACA [XGTACX_site4066] | 6.49
81 | TATATATTTATTTATAGTACACTATTTATGAAAACC [XGTACX_site3062] | 6.42
82 | CATTATTATTAACATACACACGTGTTATATACCCCC [CACACA_site9365] | 8.1
83 | CATATAAATATTTGTGCACACAATTATTAATAATTA [CACACA_site3884] | 11.2
84 | AAAAAGTTATTATGAACACACATTTATTATAGTCAT [CACACA_site6838] | 6.26
85 | ATTTGAAATTGGTAGACACACAATAAAATATCAAAA [CACACA_site447] | 5.95
86 | TTAAACTTGAGACACACACACACACGGATATAAAAA [CACACA_site6495] | 7
87 | ATATATATCGGACACACACACATGTTTTAAAACTAT [CACACA_site4218] | 7.13
88 | CTTTTATTCAAAAGATGTACTTAAATATATATCTAA [XGTACX_site4326] | 5.86
89 | ATGTGTATAATTAAATGTACATATATATATATATAT [XGTACX_site829] | 9.34
